Article PMC12820563, “FoxP3 forms a head-to-head dimer in vivo and stabilizes its multimerization on adjacent microsatellites”
Some of the results follow.

biological target: T1, MBP-FoxP1dN (Mus musculus, UniProt P58462 326-579); experiment: PD-seq (MBP pull-down with sequencing); 20 mM Tris-HCl pH 7.5, 100 mM NaCl, 1.5 mM MgCl2, 0.4 uM protein, 0.1 uM dsDNA library, 30 min, room temperature, amylose pull-down; high values mean tight binding; settings: protein: recombinant; tags: His6-MBP; chain copies: 2; dsDNA, one strand shown
T1 sequence: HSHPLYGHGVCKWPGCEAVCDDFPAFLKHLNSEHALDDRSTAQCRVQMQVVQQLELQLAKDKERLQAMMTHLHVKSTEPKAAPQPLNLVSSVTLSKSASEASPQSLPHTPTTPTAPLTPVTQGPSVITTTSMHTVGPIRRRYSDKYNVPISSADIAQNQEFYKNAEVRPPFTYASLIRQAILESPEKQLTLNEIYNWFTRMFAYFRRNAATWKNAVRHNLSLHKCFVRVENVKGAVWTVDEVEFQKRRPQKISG
In short: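 Mouse FoxP3 or FoxP1 fragment lacking the N-terminus, His6-MBP-tagged and expressed in E. coli, was incubated at 0.4 µM with 0.1 µM Klenow-filled degenerate double-stranded DNA library for 30 min at room temperature in Tris pH 7.5 buffer with NaCl and MgCl2. Complexes captured on amylose resin were washed three times and their DNA sequenced on Illumina. Binding is reads-per-million enrichment of pull-down over input, replicates pooled.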

Row | Sequence | binding signal
1 | GATGATTGTTCTCCCAGCTGATGAATTGTGTTAATCGAGTAAACAAATTTTCCTAATCTTTCTGTTCAAGCGCCATCTAC | 1.27 RPM ratio (pull-down/input)
2 | GATGATTGTTCTCCCAGCTGATGAATTGTAATCATCGAGTAAACAAATTTTCCTAATCTTTCTGTTCAAGCGCCATCTAC | 1.69 RPM ratio (pull-down/input)
3 | GATGATTGTTCTCCCAGCTGATGAATTTTTCATTTCGAGTAAACAAATTTTCCTAATCTTTCTGTTCAAGCGCCATCTAC | 0.989 RPM ratio (pull-down/input)
4 | GATGATTGTTCTCCCAGCTGATGAATTCTGAGCGTCGAGTAAACAAATTTTCCTAATCTTTCTGTTCAAGCGCCATCTAC | 0.83 RPM ratio (pull-down/input)
5 | GATGATTGTTCTCCCAGCTGATGAATTCACAGAATCGAGTAAACAAATTTTCCTAATCTTTCTGTTCAAGCGCCATCTAC | 0.984 RPM ratio (pull-down/input)
6 | GATGATTGTTCTCCCAGCTGATGAATTCAGCCAATCGAGTAAACAAATTTTCCTAATCTTTCTGTTCAAGCGCCATCTAC | 0.903 RPM ratio (pull-down/input)
7 | GATGATTGTTCTCCCAGCTGATGAATTTCGCAGTTCGAGTAAACAAATTTTCCTAATCTTTCTGTTCAAGCGCCATCTAC | 0.847 RPM ratio (pull-down/input)
8 | GATGATTGTTCTCCCAGCTGATGAATTATGGGCCTCGAGTAAACAAATTTTCCTAATCTTTCTGTTCAAGCGCCATCTAC | 0.904 RPM ratio (pull-down/input)
9 | GATGATTGTTCTCCCAGCTGATGAATTCTCACCTTCGAGTAAACAAATTTTCCTAATCTTTCTGTTCAAGCGCCATCTAC | 0.868 RPM ratio (pull-down/input)
10 | GATGATTGTTCTCCCAGCTGATGAATTACTTTAGTCGAGTAAACAAATTTTCCTAATCTTTCTGTTCAAGCGCCATCTAC | 0.998 RPM ratio (pull-down/input)
11 | GATGATTGTTCTCCCAGCTGATGAATTGGGTAGGTCGAGTAAACAAATTTTCCTAATCTTTCTGTTCAAGCGCCATCTAC | 0.774 RPM ratio (pull-down/input)
12 | GATGATTGTTCTCCCAGCTGATGAATTGAACGGCTCGAGTAAACAAATTTTCCTAATCTTTCTGTTCAAGCGCCATCTAC | 0.829 RPM ratio (pull-down/input)
13 | GATGATTGTTCTCCCAGCTGATGAATTTAACCGATCGAGTAAACAAATTTTCCTAATCTTTCTGTTCAAGCGCCATCTAC | 0.833 RPM ratio (pull-down/input)
14 | GATGATTGTTCTCCCAGCTGATGAATTTGAGCAATCGAGTAAACAAATTTTCCTAATCTTTCTGTTCAAGCGCCATCTAC | 1.08 RPM ratio (pull-down/input)
15 | GATGATTGTTCTCCCAGCTGATGAATTACTTAATTCGAGTAAACAAATTTTCCTAATCTTTCTGTTCAAGCGCCATCTAC | 1.28 RPM ratio (pull-down/input)
16 | GATGATTGTTCTCCCAGCTGATGAATTTACAGTTTCGAGTAAACAAATTTTCCTAATCTTTCTGTTCAAGCGCCATCTAC | 1.31 RPM ratio (pull-down/input)
17 | GATGATTGTTCTCCCAGCTGATGAATTAGCGAGCTCGAGTAAACAAATTTTCCTAATCTTTCTGTTCAAGCGCCATCTAC | 0.774 RPM ratio (pull-down/input)
18 | GATGATTGTTCTCCCAGCTGATGAATTTTGATAGTCGAGTAAACAAATTTTCCTAATCTTTCTGTTCAAGCGCCATCTAC | 0.941 RPM ratio (pull-down/input)
19 | GATGATTGTTCTCCCAGCTGATGAATTATTCTAATCGAGTAAACAAATTTTCCTAATCTTTCTGTTCAAGCGCCATCTAC | 1.2 RPM ratio (pull-down/input)
20 | GATGATTGTTCTCCCAGCTGATGAATTGTACTGATCGAGTAAACAAATTTTCCTAATCTTTCTGTTCAAGCGCCATCTAC | 1.02 RPM ratio (pull-down/input)

Row | Sequence | binding signal
21 | GATGATTGTTCTCCCAGCTGATGAATTTCCTGCATCGAGTAAACAAATTTTCCTAATCTTTCTGTTCAAGCGCCATCTAC | 1.05 RPM ratio (pull-down/input)
22 | GATGATTGTTCTCCCAGCTGATGAATTACCAGCGTCGAGTAAACAAATTTTCCTAATCTTTCTGTTCAAGCGCCATCTAC | 1.01 RPM ratio (pull-down/input)
23 | GATGATTGTTCTCCCAGCTGATGAATTAAAGTGATCGAGTAAACAAATTTTCCTAATCTTTCTGTTCAAGCGCCATCTAC | 0.904 RPM ratio (pull-down/input)
24 | GATGATTGTTCTCCCAGCTGATGAATTTAGAGGTTCGAGTAAACAAATTTTCCTAATCTTTCTGTTCAAGCGCCATCTAC | 0.984 RPM ratio (pull-down/input)
25 | GATGATTGTTCTCCCAGCTGATGAATTGTTCATTTCGAGTAAACAAATTTTCCTAATCTTTCTGTTCAAGCGCCATCTAC | 1.2 RPM ratio (pull-down/input)
26 | GATGATTGTTCTCCCAGCTGATGAATTAAGTAAATCGAGTAAACAAATTTTCCTAATCTTTCTGTTCAAGCGCCATCTAC | 1.37 RPM ratio (pull-down/input)
27 | GATGATTGTTCTCCCAGCTGATGAATTTCACAATTCGAGTAAACAAATTTTCCTAATCTTTCTGTTCAAGCGCCATCTAC | 0.968 RPM ratio (pull-down/input)
28 | GATGATTGTTCTCCCAGCTGATGAATTATCTGAATCGAGTAAACAAATTTTCCTAATCTTTCTGTTCAAGCGCCATCTAC | 0.99 RPM ratio (pull-down/input)
29 | GATGATTGTTCTCCCAGCTGATGAATTGGTTCGCTCGAGTAAACAAATTTTCCTAATCTTTCTGTTCAAGCGCCATCTAC | 0.888 RPM ratio (pull-down/input)
30 | GATGATTGTTCTCCCAGCTGATGAATTCGTATCTTCGAGTAAACAAATTTTCCTAATCTTTCTGTTCAAGCGCCATCTAC | 1.02 RPM ratio (pull-down/input)
31 | GATGATTGTTCTCCCAGCTGATGAATTAATCGCATCGAGTAAACAAATTTTCCTAATCTTTCTGTTCAAGCGCCATCTAC | 1.25 RPM ratio (pull-down/input)
32 | GATGATTGTTCTCCCAGCTGATGAATTACGTGTTTCGAGTAAACAAATTTTCCTAATCTTTCTGTTCAAGCGCCATCTAC | 1.23 RPM ratio (pull-down/input)
33 | GATGATTGTTCTCCCAGCTGATGAATTGCTATCGTCGAGTAAACAAATTTTCCTAATCTTTCTGTTCAAGCGCCATCTAC | 1.02 RPM ratio (pull-down/input)
34 | GATGATTGTTCTCCCAGCTGATGAATTAATTTGATCGAGTAAACAAATTTTCCTAATCTTTCTGTTCAAGCGCCATCTAC | 0.962 RPM ratio (pull-down/input)
35 | GATGATTGTTCTCCCAGCTGATGAATTTATGTTATCGAGTAAACAAATTTTCCTAATCTTTCTGTTCAAGCGCCATCTAC | 2.22 RPM ratio (pull-down/input)
36 | GATGATTGTTCTCCCAGCTGATGAATTGCTCTAATCGAGTAAACAAATTTTCCTAATCTTTCTGTTCAAGCGCCATCTAC | 1.1 RPM ratio (pull-down/input)
37 | GATGATTGTTCTCCCAGCTGATGAATTAGTGTCATCGAGTAAACAAATTTTCCTAATCTTTCTGTTCAAGCGCCATCTAC | 1.27 RPM ratio (pull-down/input)
38 | GATGATTGTTCTCCCAGCTGATGAATTAGACGAATCGAGTAAACAAATTTTCCTAATCTTTCTGTTCAAGCGCCATCTAC | 0.93 RPM ratio (pull-down/input)
39 | GATGATTGTTCTCCCAGCTGATGAATTGGACTGTTCGAGTAAACAAATTTTCCTAATCTTTCTGTTCAAGCGCCATCTAC | 0.873 RPM ratio (pull-down/input)
40 | GATGATTGTTCTCCCAGCTGATGAATTGGCCGAGTCGAGTAAACAAATTTTCCTAATCTTTCTGTTCAAGCGCCATCTAC | 0.765 RPM ratio (pull-down/input)
